Reference: PubChem BioAssay AID1460 (National Center for Advancing Translational Sciences (NCATS), 2008)
“And” between values parts separate entries of the source, which are not always exact repeats. Equal values may be shown once. Screen size: about 270,000 compounds; about 5,800 (2.1%) were called active. The inconclusive results got no clear call from the source; some entries with a clear call stand among them for comparison. Calls come from the whole dose curve; as a rule, active = well fitted inhibition curve with a large enough effect; inconclusive = small, poorly fitted or top-dose-only effect; inactive = flat fitted curve, though single readings scatter. Where the call is inconclusive, the potency comes from a doubtful curve fit. Numbered stars: 1 amine (or outer) side, 2 acyl side, 3 side chain; on linkers, the order of the positions; unused ones are H or OH. Bridge positions count the residues as written; N and C are the ends. Square brackets hold non-standard residues; d marks the D form. Peptide text beside a SMILES is read from it. I, II: the chains in the order shown. Actinocin(9to1) = Cc1c2oc3c(C)ccc(C(=O)[*:1])c3nc-2c(C(=O)[*:2])c(N)c1=O; aThr = C[C@H](O)[C@H](N)C(=O)O; NMeV = CN[C@H](C(=O)O)C(C)C; Sar = CNCC(=O)O

target: Microtubule-associated protein tau (Homo sapiens) (UniProt P10636); experiment: qHTS for Inhibitors of Tau Fibril Formation, Thioflavin T Binding; conditions: recombinant tau K18 P301L (four-repeat tau fragment), heparin-induced fibrillization, ThT fluorescence; series mostly up to 57.4 µM; activity, negative = inhibition: at the top concentration; note: nearly all actives have a fitted effect of over 55% in size
In short: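 K18 P301L tau (15 uM + 0.24 uM Alexa 594-tagged), heparin 20 uM, NaOAc pH 7, 6 h 37 C; ThT 30 uM, 1 h RT, ex 450/em 510 nm.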
% is set by controls: 0 for no effect and ±100 for the full control effect; potency is the fitted concentration of half-maximal effect; tags give direction and shape of the fitted curve.

Sequence of UniProt P10636 (P10636 whole entry, looked up, the tested form may be a part): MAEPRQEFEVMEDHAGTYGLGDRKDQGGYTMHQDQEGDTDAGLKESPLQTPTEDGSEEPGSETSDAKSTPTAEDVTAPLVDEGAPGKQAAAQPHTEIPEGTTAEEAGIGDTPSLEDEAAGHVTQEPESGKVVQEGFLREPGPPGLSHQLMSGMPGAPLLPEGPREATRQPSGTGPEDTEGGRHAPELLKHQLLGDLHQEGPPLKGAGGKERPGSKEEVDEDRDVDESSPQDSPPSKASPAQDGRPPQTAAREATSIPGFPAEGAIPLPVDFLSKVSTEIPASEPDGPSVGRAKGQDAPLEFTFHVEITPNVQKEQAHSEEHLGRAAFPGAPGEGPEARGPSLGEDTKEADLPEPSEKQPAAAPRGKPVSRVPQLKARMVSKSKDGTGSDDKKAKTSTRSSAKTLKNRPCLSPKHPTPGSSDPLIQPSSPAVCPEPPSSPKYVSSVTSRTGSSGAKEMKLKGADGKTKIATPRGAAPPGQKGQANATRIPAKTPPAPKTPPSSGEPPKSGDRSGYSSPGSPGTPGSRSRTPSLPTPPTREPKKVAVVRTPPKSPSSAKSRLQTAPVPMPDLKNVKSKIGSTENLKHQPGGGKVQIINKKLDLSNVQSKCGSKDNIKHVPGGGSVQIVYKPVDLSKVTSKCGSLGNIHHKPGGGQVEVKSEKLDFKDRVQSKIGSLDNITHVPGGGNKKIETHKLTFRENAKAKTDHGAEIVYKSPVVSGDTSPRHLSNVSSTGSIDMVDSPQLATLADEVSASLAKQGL

Row | Structure (SMILES) | activity, negative = inhibition | Potency
1 | Cc1cccc(-n2c3nc(=O)[nH]c(=O)c-3cc3c(Cl)cccc32)c1C | inactive: -11.5% | –
2 | Cc1sc(N)c(C(=O)c2cccc(C(F)(F)F)c2)c1C | – | inconclusive: 22.4 µM [inhibitor, single point]
3 | COc1ccc(C(=O)NCc2cn3c(C)csc3n2)cc1OC | inactive: -0.3% | –
4 | COc1cc2oc(=O)c(CC(=O)N3CCCCC3)c(C)c2cc1Cl | inactive: -2.19% | –
5 | CCOc1ccc(NC(=O)CSc2nnc3scc(-c4ccc(Cl)cc4)n23)cc1 | – | inconclusive: 15.8 µM [inhibitor, partial curve]
6 | CCOc1cccc2cc(-c3nc4ccc(C(=O)O)cc4[nH]3)c(=O)oc12 | – | inconclusive: 25.1 µM [inhibitor, partial curve]
7 | COc1ccc(OC)c2c(=S)c3ccccc3[nH]c12 | – | active: 3.98 µM
8 | CCOc1cc(/C=C/c2cc(C(=O)O)c3ccccc3n2)ccc1OC | – | inconclusive: 20 µM [inhibitor, single point]
9 | Cc1ccc(OC(=O)c2cc(-c3ccc4c(c3)OCCO4)on2)cc1C | – | inconclusive: 2.51 µM [inhibitor, full curve]
10 | O=C(NC(=S)NNC(=O)c1cccs1)c1ccc(Br)o1 | – | inconclusive: 31.6 µM [inhibitor, partial curve]
11 | CN1CCN(c2nc(N3CCN(c4ccccc4)CC3)ncc2F)CC1 | – | inconclusive: 22.4 µM [inhibitor, single point]
12 | CC(=O)Nc1ccc2oc(-c3ccccc3Br)nc2c1 | – | inconclusive: 17.8 µM [inhibitor, partial curve]
13 | O=[N+]([O-])c1ccc(O)c(C(C#Cc2ccccc2)N2CCOCC2)c1 (centres undefined) | – | inconclusive: 39.8 µM [inhibitor, partial curve]
14 | Cc1ccc(SCc2nc(-c3ccccc3)no2)cc1 | – | inconclusive: 3.16 µM [inhibitor, partial curve]
15 | CCc1ccc(NS(=O)(=O)c2ccc3[nH]cc(C(=O)NCC4CCCO4)c(=O)c3c2)cc1 (centres undefined) | – | inconclusive: 7.08 µM [inhibitor, partial curve, poor fit]
16 | CC(C)(C)NC(=O)CSC(=Nc1ccc(F)cc1)NC#N | – | inconclusive: 14.1 µM [inhibitor, partial curve]
17 | Cc1cccc(C)c1NC(=S)N/N=C1\CC2CC=CC12 (centres undefined) | – | inconclusive: 17.8 µM [inhibitor, single point]
18 | C=CC#CC[N+]1(CC#Cc2ccccc2)CCOCC1 | – | inconclusive: 11.2 µM [inhibitor, partial curve]
19 | O=C(Nc1ccccc1O)c1c(O)c2c([nH]c1=O)CCCC2 | – | inconclusive: 1.78 µM [inhibitor, full curve, poor fit]
20 | OC(C#Cc1ccccn1)c1cccs1 (centres undefined) | – | inconclusive: 3.98 µM [inhibitor, single point]
21 | Cc1c2oc3c(C)ccc(C(=O)N[C@@H]4C(=O)N[C@@H](C(C)C)C(=O)N5CCC[C@@H]5C(=O)N(C)CC(=O)N(C)[C@@H](C(C)C)C(=O)O[C@H]4C)c3nc-2c(C(=O)N[C@@H]2C(=O)N[C@@H](C(C)C)C(=O)N3CCC[C@@H]3C(=O)N(C)CC(=O)N(C)[C@@H](C(C)C)C(=O)O[C@H]2C)c(N)c1=O (I: [aThr]V[dP][Sar][NMeV] / II: [aThr]V[dP][Sar][NMeV]; ester I:1-I:C, II:1-II:C; linker I:N-II:N via Actinocin(9to1)) | – | inconclusive: 25.1 µM [inhibitor, partial curve]
22 | CCc1c(-c2ccccc2)nc2ccccc2c1C(=O)NCCc1ccccc1 | inactive: -6.08% | –

Row | Structure (SMILES) | activity, negative = inhibition | Potency
23 | CC(=O)c1ccc(N2CCN(S(=O)(=O)c3ccc(-c4cc(C(F)(F)F)on4)s3)CC2)cc1 | inactive: 5.6% | –
24 | C/C(=N\NC(=O)c1ccc(CN2CCOCC2)cc1)c1ccc(NC(=O)c2ccccc2)cc1 | – | inconclusive: 10 µM [inhibitor, partial curve]
25 | CCc1ccc(NC(=O)CSc2nnc(Cc3cccn3C)n2-c2ccc(OC)cc2)cc1 | – | inconclusive: 28.2 µM [inhibitor, single point]
26 | Cc1ccc2c(c1)N(CC(=O)N1CCN(c3nc4ccccc4s3)CC1)C(=O)C(C)O2 (centres undefined) | – | inconclusive: 14.1 µM [inhibitor, partial curve, poor fit]
27 | O=C(COc1ccc(F)cc1)Nc1ccc2nc(SCC(=O)N3CCc4ccccc43)sc2c1 | – | inconclusive: 1.58 µM [inhibitor, full curve]
28 | COc1ccc2c(c1)[nH]c1c(N3CCN(Cc4ccc5c(c4)OCO5)CC3)ncnc12 | – | inconclusive: 14.1 µM [inhibitor, partial curve]
29 | O=C(/C=C/c1ccc([N+](=O)[O-])cc1)NCCc1ccc(F)cc1 | – | inconclusive: 5.01 µM [inhibitor, partial curve]
30 | c1cncc(CSc2ccc(-c3ccc4c(c3)OCO4)nn2)c1 | inactive: -17.8% | –
31 | CCOC(=O)c1ccc2oc(=O)n(Cc3ccccc3)c2c1 | inactive: 5.05% | –
32 | CCCCn1c(C(C)NC(=O)COC)nc2ccccc21 (centres undefined) | inactive: -3.73% | –
33 | Cc1csc(C(C#N)C(=O)c2cc3ccccc3o2)n1 (centres undefined) | – | inconclusive: 14.1 µM [inhibitor, partial curve]
34 | Cc1cccc(N2CCN(C3=NC(=O)C(=C4CCCCC4)S3)CC2)c1 | – | inconclusive: 5.01 µM [inhibitor, partial curve]
35 | CC(=O)Nc1ccc(C2Sc3ccccc3NC3=C2C(=O)c2ccccc23)cc1 (centres undefined) | – | inconclusive: 7.08 µM [inhibitor, partial curve]
36 | COc1ccc(N2CCN(Cc3cc(=O)oc4ccc5ccccc5c34)CC2)cc1 | – | inconclusive: 14.1 µM [inhibitor, partial curve]
37 | c1ccc2c(Cc3c[nH]c4ccccc34)c[nH]c2c1 | – | inconclusive: 20 µM [inhibitor, partial curve, poor fit] and inconclusive: 22.4 µM [inhibitor, partial curve]
38 | O=C(/C=C/c1cccc(F)c1)N1CCc2ccccc21 | – | inconclusive: 0.0398 µM [inhibitor, full curve, poor fit]
39 | Cc1ccc(C)c(CN2C(=O)c3ccccc3S(=O)(=O)c3ccc(C(=O)N4CCCCCC4)cc32)c1 | inactive: -7.25% | –
40 | O=C(COC(=O)c1ccc(-c2nnc(-c3ccccc3)o2)cc1)c1ccccc1 | – | inconclusive: 0.251 µM [inhibitor, full curve]
41 | NC(=O)c1cccc2ccccc12 | inactive: 1.96% | –
42 | C=CCOc1ccc(C2OC34CCCCC3C(C#N)(C#N)C2(C#N)C(=N)O4)cc1 (centres undefined) | inactive: -19.3% | –
43 | COC(=O)CSC1=C(C#N)C(=O)NC2(CCCCC2)S1 | – | inconclusive: 20 µM [inhibitor, partial curve]
44 | CC(C)OC(=O)c1cccnc1SCc1cc(=O)n2ccccc2n1 | inactive: -25.3% | –

Row | Structure (SMILES) | activity, negative = inhibition | Potency
45 | Cc1cc(Nc2cccc(C)c2C)n2cnnc2n1 | inactive: 16% | –
46 | COc1c2ccoc2c(OCC=C(C)C)c2oc(=O)ccc12 | – | inconclusive: 20 µM [inhibitor, single point]
47 | CCCCc1ccc(N=N/C(C(=O)Nc2cc(OC)c(NC(C)=O)cc2OC)=C(/C)O)cc1 | – | inconclusive: 12.6 µM [inhibitor, partial curve]
48 | CCC(Oc1ccccc1)C(=O)Nc1ccsc1C(=O)OC (centres undefined) | inactive: -17.7% | –
49 | COC(=O)c1c(-c2ccc(C)cc2)csc1N | – | inconclusive: 15.8 µM [inhibitor, partial curve]
50 | CCCCCOC(=O)CSc1ncnc2c1sc1nc(N3CCOCC3)c3c(c12)CCCC3 | inactive: -12.9% | –
51 | O=[N+]([O-])c1ccc(-c2nnc(CNC3CCCC3)o2)cc1 | – | inconclusive: 28.2 µM [inhibitor, partial curve]
52 | COc1ccc(OCCCCn2c(-c3ccc(Cl)cc3)nc3ccccc3c2=O)cc1 | inactive: -11.9% | –
53 | S=C(Nc1ccc2nc(-c3ccccn3)c(-c3ccccn3)nc2c1)N1CCOCC1 | – | active: 12.6 µM
54 | Cc1nc(Nc2ccccc2Cl)sc1C(=O)Nc1ccccc1 | – | inconclusive: 28.2 µM [inhibitor, partial curve]
55 | Cc1c(/C=N/NC(=O)C(NC(=O)c2ccc3c(c2)OCO3)C(C)C)c2ccccc2n1C (centres undefined) | – | inconclusive: 39.8 µM [inhibitor, single point]
56 | CN(C)S(=O)(=O)c1ccc(C(=O)Oc2ccccc2)cc1 | – | inconclusive: 11.2 µM [inhibitor, partial curve]
57 | O=C(NC(=S)Nc1cc([N+](=O)[O-])ccc1O)c1cccnc1 | – | inconclusive: 12.6 µM [inhibitor, partial curve]
58 | O=C(c1ccccc1)c1nc[nH]c1C(=O)Nc1ccccc1 | inactive: -13.6% | –
59 | Cc1ccc(Cl)cc1N1CCN(C(=O)c2cccc3c(=O)c(C)c(-c4ccccc4)oc23)CC1 | – | inconclusive: 31.6 µM [inhibitor, single point]
60 | CCc1ccc(NC(=O)Cn2c(SC)nc3ccccc32)cc1 | – | inconclusive: 39.8 µM [inhibitor, single point]
61 | O=C1C2=CC[C@H]3C(=O)N(Cc4ccccc4)C(=O)[C@@H]3[C@@H]2[C@H](O)[C@@H]2O[C@H]12 | – | inconclusive: 3.16 µM [inhibitor, partial curve]
62 | Cc1ccc(C(=O)N/N=C/C2=Cc3ccccc3OC2C)cc1 (centres undefined) | – | inconclusive: 7.94 µM [inhibitor, partial curve]
63 | COc1cccc(C(=O)NC(=S)Nc2ccc(N3CCCC3)cc2)c1 | – | active: 11.2 µM
64 | NCCC[C@@H](CC(=O)N[C@@H]1CCCC[C@H]1C(=O)N[C@H](CC(=O)N[C@@H](CCC(=O)O)CC(=O)O)Cc1c[nH]c2ccccc12)NC(=O)C[C@H](Cc1ccccc1)NC(=O)[C@@H]1CCCC[C@H]1N | inactive: -14.5% | –
